Experimental data taken from the supplement of paper PMC12217912.
The list shows a part of the results. The full chains were built here from the parent and the listed change. Inactive controls read about 0.05.

B1: TEV protease; numbered along this chain (parent)
chain: MGESLFKGPRDYNPISSSICHLTNESDGHTTSLYGIGFGPFIITNKHLFRRNNGTLVVQSLHGVFKVKDTTTLQQHLVDGRDMIIIRMPKDFPPFPQKLKFREPQREERICLVTTNFQTKSMSSMVSDTSCTFPSGDGIFWKHWIQTKDGQCGSPLVSTRDGFIVGIHSASNFTNTNNYFTSVPKNFMELLTNQEAQQWVSGWRLNADSVLWGGHKVFMVKPEEPFQPVKEATQL

Variants of: B1
Assay: raw area under fraction-flipped curve 0-4 h after induction (AUC4h, not background-subtracted), DNA-recorder readout of cleavage of the substrate (dimensionless); higher = more cleavage of the substrate by the protease variant
Settings: temperature: 34 °C; time window: 0-4 h after rhamnose induction
Procedure: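 In vivo DNA recorder in E. coli TOP10(DE3) ΔrhaA at 34 °C. Each TEVp single-site mutant (parent TEVp 0) is paired with a single-site variant of the 7-mer TEVs (canonical ENLYFQ|S). The substrate sits between flexible linkers in a Bxb1-sfGFP-TEVs-SsrA fusion, so cleavage stabilises Bxb1 and speeds flipping of a recombination array, read by NGS. The value is the raw area under the fraction-flipped curve over 0-4 h after rhamnose induction (AUC4h), with ≥20 reads per time point. It is not background-subtracted; inactive controls average about 0.047.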
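Further: Bxb1 expression induced with 0.2% (w/v) L-rhamnose at OD600 near 0.5, cultures sampled hourly, flipped fraction per protease–substrate barcode pair counted by paired-end Illumina sequencing.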

| Variant | area with substrate ENAYFQS | area with substrate ENCYFQS | area with substrate ENDYFQS | area with substrate ENEYFQS | area with substrate ENFYFQS | area with substrate ENHYFQS | area with substrate ENNYFQS | area with substrate ENPYFQS | area with substrate ENQYFQS | area with substrate ENRYFQS | area with substrate ENSYFQS | area with substrate ENTYFQS | area with substrate ENVYFQS | area with substrate ENYYFQS | area with substrate ENIYFQS | area with substrate ENKYFQS | area with substrate ENGYFQS | area with substrate ENMYFQS | area with substrate ENWYFQS |
| --- | --- | --- | --- | --- | --- | --- | --- | --- | --- | --- | --- | --- | --- | --- | --- | --- | --- | --- | --- |
| S60W | 0.0653 | 0.0464 | 0.0384 | 0.057 | 0.0569 | 0.0549 | 0.0375 | 0.0709 | 0.0538 | 0.0462 | 0.0651 | 0.0524 | 0.0589 | 0.0544 | – | – | – | – | – |
| F65I | 0.0461 | – | 0.0335 | 0.0913 | 0.0572 | – | 0.0584 | 0.077 | 0.0591 | – | 0.0488 | – | 0.0645 | 0.078 | 0.0784 | 0.0758 | – | – | – |
| F65P | 0.0433 | 0.0431 | – | 0.0458 | – | 0.049 | 0.0575 | 0.0417 | 0.0505 | 0.0464 | 0.0374 | – | 0.0347 | 0.037 | 0.045 | – | 0.0588 | 0.0709 | 0.0242 |
| F65Q | 0.0647 | – | – | 0.0515 | – | – | – | 0.0701 | – | – | 0.0391 | – | – | – | – | – | – | 0.0673 | – |
| K66W | 0.031 | 0.0547 | 0.0343 | 0.0425 | 0.0569 | 0.064 | – | – | 0.0606 | 0.0486 | – | 0.0618 | – | 0.0504 | – | – | – | 0.078 | – |
| K66Y | 0.0691 | 0.0665 | 0.0552 | 0.0511 | 0.0438 | 0.0449 | – | – | 0.0684 | 0.05 | 0.0576 | 0.0598 | – | – | – | 0.0434 | 0.0667 | – | 0.0769 |
| V67G | 0.0555 | 0.0328 | 0.0457 | 0.0569 | 0.0069 | 0.0481 | 0.0315 | – | 0.0456 | – | 0.033 | 0.0624 | – | – | 0.0736 | – | 0.0407 | 0.0519 | – |
| Q74I | 0.0724 | – | 0.0877 | 0.0509 | – | 0.0793 | 0.0559 | – | 0.0674 | – | – | 0.062 | 0.0602 | – | – | – | – | – | – |
| Q74P | 0.0432 | – | – | – | – | 0.0604 | 0.0616 | – | 0.0582 | – | – | – | – | – | – | 0.0552 | 0.0647 | 0.0858 | – |
| Q75D | 0.0647 | 0.0529 | – | 0.0405 | 0.0535 | – | 0.0562 | 0.0643 | 0.0695 | 0.0714 | 0.0812 | – | 0.0629 | – | 0.064 | – | – | – | – |
| H76F | 0.061 | – | – | 0.0637 | – | 0.0615 | 0.0568 | – | – | – | 0.0714 | 0.0568 | 0.0761 | 0.0565 | 0.104 | – | 0.0527 | 0.0603 | – |
| H76T | 0.0611 | – | – | 0.0715 | – | 0.0558 | – | – | 0.0868 | – | 0.0622 | 0.0566 | – | – | 0.069 | 0.0573 | – | – | – |
| V78D | 0.0572 | – | 0.055 | 0.0665 | 0.0541 | 0.0622 | – | – | 0.0558 | 0.0545 | 0.0626 | – | 0.0586 | 0.0505 | 0.0672 | – | 0.0456 | – | 0.078 |
| V78E | 0.0547 | 0.0564 | 0.0586 | 0.0557 | – | 0.0474 | 0.0532 | 0.0609 | 0.0618 | – | 0.0571 | 0.0636 | 0.0608 | 0.067 | 0.0882 | 0.0575 | 0.0558 | 0.062 | – |
| V78N | 0.0596 | 0.0503 | – | – | – | 0.0654 | 0.0486 | 0.0331 | 0.0483 | 0.0089 | 0.0571 | – | 0.0597 | – | 0.0784 | 0.059 | 0.0445 | 0.0601 | – |
